Test results reported in PubChem BioAssay AID1346428 (National Center for Advancing Translational Sciences (NCATS), 2018).
Among all 48,000 compounds or so, about 1,200 (2.5%) were called active. Not shown: some 2% with an inconclusive outcome.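 The calls were made as follows: active = activation of at least 60% and not above a set upper limit (about 1 call in 100 departs from these limits); inconclusive = activation of 40% to 60%, or above that upper limit; inactive = activation under 40%.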 The list shows a part of the results.

target: Probable G-protein coupled receptor 32 (Homo sapiens) (UniProt O75388); assay: qHTS for Agonists of Human Resolvin D1 Receptor DRV1; details: CHO-K1 GPR32 beta-arrestin PathHunter luminescence, 90 min; at 76.9 µM; stronger effect = higher value; zero percent set by DMSO-only wells; also: 0% is about no effect
In short: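 Luminescent readout of beta-Gal complementation quantifies ligand-induced beta-arrestin association with GPR32 in CHO-K1 cells; 90 min compound incubation at 37 °C, detection 1 h at room temperature.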

Sequence of UniProt O75388 (O75388 whole entry, looked up): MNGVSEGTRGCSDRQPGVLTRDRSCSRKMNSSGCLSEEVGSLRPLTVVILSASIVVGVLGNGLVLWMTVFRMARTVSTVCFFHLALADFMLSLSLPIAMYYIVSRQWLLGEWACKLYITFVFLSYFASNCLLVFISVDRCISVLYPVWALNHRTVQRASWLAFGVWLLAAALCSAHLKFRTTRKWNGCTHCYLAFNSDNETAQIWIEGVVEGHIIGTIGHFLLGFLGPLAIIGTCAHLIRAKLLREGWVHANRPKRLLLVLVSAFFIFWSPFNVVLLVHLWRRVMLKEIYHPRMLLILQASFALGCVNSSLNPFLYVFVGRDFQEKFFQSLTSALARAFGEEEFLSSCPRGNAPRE

| SMILES | activation |
| --- | --- |
| Cc1ccc(CNC(=O)C2CCN(S(=O)(=O)c3c(C)noc3/C=C/c3c(C)cc(C)cc3C)CC2)cc1 | inactive: -5.78% |
| CSc1ncc(C(=O)NCc2ccc(C)cc2)c(-c2ccccc2)n1 | inactive: 25.6% |
| Cc1ccc2nc(COc3ccccc3NC(=O)COc3ccccc3Cl)cc(=O)n2c1 | inactive: -0.858% |
| COc1ccc(-c2onc(C)c2C)cc1S(=O)(=O)N1CCN(c2ccc(Cl)cc2)CC1 | inactive: -5.42% |
| O=C(CSc1nc2c([nH]c3ccccc32)c(=O)n1-c1ccccc1)N1CCOCC1 | inactive: -32.3% |
| CC(C)OC(=O)c1c(NC(=O)COc2cccc(Br)c2)sc2c1CCCC2 | inactive: 0.576% |
| CC(CNC(=O)C1CCN(S(=O)(=O)c2ccc3c(ccn3C)c2)CC1)c1ccccc1 (stereo unspecified) | inactive: -19.1% |
| CCCC(=O)c1cc(O)c(O)cc1O | inactive: -74.3% |
| CCN(CC)CCn1c(-c2ccccc2)csc1=Nc1ccccc1 | active: 84.7% |
| CCCCN(CC)CCCNC(=O)C1CCCN(c2ncnc3c2nc2n3CCCCC2)C1 (stereo unspecified) | inactive: -6.98% |
| COc1ccc(NC(=O)Cn2c(=O)n(Cc3ccccc3Cl)c(=O)c3cc(OC)c(OC)cc32)cc1OC | inactive: 3.5% |
| Cc1ccc(OCCn2c(-c3ccc(Br)cc3)nc3ccccc3c2=O)cc1C | inactive: -8.95% |
| O=C1CC(c2cccc(O)c2)c2cc3c(cc2N1)OCO3 (stereo unspecified) | inactive: -4.45% |
| Nc1nonc1C(=O)NCCNCc1cccc(Cl)c1Cl | inactive: 20.2% |
| Cc1c(CC(=O)NCCc2ccccc2F)c(=O)oc2cc(O)c(Cl)cc12 | inactive: 7.96% |
| O=C(COc1ccccc1[N+](=O)[O-])N1CCC(c2nc3ccccc3o2)CC1 | inactive: -3.54% |
| CC(C)S(=O)(=O)c1oc(-c2cccs2)nc1S(=O)(=O)c1ccc(F)cc1 | inactive: -14.5% |
| Cc1ccc(NC(=O)c2c(C)oc3ccc(O)c(CN4CCCCCC4)c23)cc1 | inactive: 14.6% |
| Cc1ccc(-n2ncc3c(N(CC(C)C)CC(C)C)ncnc32)c(C)c1 | inactive: 29.6% |

| SMILES | activation |
| --- | --- |
| CCN(CCCNC(=O)c1cc(Nc2ccc(OC)cc2OC)nc2ccccc12)c1cccc(C)c1 | inactive: -3.06% |
| Cc1ccc(CCNC(=O)c2c(C)oc3nc(C)nc(N4CCOCC4)c23)cc1 | inactive: -19.2% |
| Cn1cc(-c2cc3n(n2)CCC(=O)N3CC(=O)NCc2ccc(Cl)cc2)c2ccccc21 | inactive: 30.3% |
| CCc1nc2ccc(C(=O)NCc3cccc(Br)c3)cc2nc1CC | inactive: -26.6% |
| COc1ccc(-c2nc3ccccc3s2)cc1NC(=O)COc1cccc(C)c1 | inactive: -19.3% |
| O=c1c(N2CCCCC2)csc2ccc(F)cc12 | inactive: 8.2% |
| CCc1ccc(S(=O)(=O)Nc2cc3c(cc2N2CCOCC2)n(C)c(=O)c(=O)n3C)cc1 | inactive: -3.86% |
| CCOc1ccc(NC(=O)C(=O)NCCc2ccccc2)cc1 | inactive: -4.7% |
| COc1ccc(C)cc1NC(=O)N1CCN(c2nnc(C)c3c(C)n(-c4ccccc4)nc23)CC1 | inactive: -11.3% |
| O=C(Cn1c(=O)n(CCCS(=O)(=O)C2CCCCC2)c(=O)c2ccccc21)Nc1ccc(F)c(Cl)c1 | inactive: -2.75% |
| Cc1cc(C)cc(NC(=O)CCCn2c(=O)c3cccn3c3ccccc32)c1 | inactive: -12.6% |
| CCOc1ccc(NC(=O)CC2C(=O)N(c3ccccc3)C(=O)N2Cc2cccc(OC)c2)cc1 (stereo unspecified) | inactive: -13.5% |
| O=C(c1cnc(N2CCCCC2)c2ccccc12)N1CCN(c2cccc(Cl)c2)CC1 | inactive: -28.8% |
| COCCCNC(=O)c1nn(-c2ccc(C)cc2)c(=O)n(C)c1=O | inactive: 3.35% |
| CCc1cccc(NC(=O)Cn2ncc3c([nH]c4ccc(C)cc43)c2=O)c1 | inactive: -11% |
| CCOc1ccccc1NC(=O)CCc1c(C)nc2c3cccnc3nn2c1C | inactive: -9.43% |
| CCCCNc1sc(S(=O)(=O)CCC)nc1S(=O)(=O)c1ccc(C)cc1 | inactive: -25% |
| COc1ccc(Cl)cc1C1CC(=O)Nc2cc3c(cc21)OCCO3 (stereo unspecified) | inactive: -9.58% |
| CCNC(=O)c1c2c(nc3ccccc13)C(=O)N(C1CCCCC1)C2 | inactive: -1.2% |

| SMILES | activation |
| --- | --- |
| O=C(Cn1c(SCc2ccccc2F)nc2cccnc21)Nc1ccc(F)c(Cl)c1 | inactive: -3.68% |
| Cc1ccc(CN2C(=O)c3ccccc3Sc3ccc(C(=O)NC4CCCC4)cc32)cc1 | inactive: 2.06% |
| O=C(NC1CC(=O)N(c2ccccc2)C1)c1ccco1 (stereo unspecified) | inactive: 2.74% |
| Cc1ccc(C(=O)N2CCc3cc(CNC(=O)CCc4ccccc4)ccc32)cc1 | inactive: -36.5% |
| CCc1cccc(NC(=O)CN(c2ccc(C)cc2)S(=O)(=O)c2cccs2)c1 | inactive: 6.71% |
| O=C(Nc1ccc(F)cc1)Nc1ccc2snnc2c1 | inactive: 39.1% |
| CCNC(=O)C1CCN(Cc2cc3ccccc3n2Cc2ccc(C)cc2)CC1 | inactive: -3.57% |
| CCOC(=O)c1c(C)oc2nc(C)nc(N3CCN(c4ccc(OC)cc4)CC3)c12 | inactive: -16.6% |
| CCOc1ccccc1CNC(=O)CCCN1C(=O)c2cccnc2Oc2ccc(Cl)cc21 | inactive: -27.1% |
| COc1ccccc1Cn1c(SCC(=O)C(C)(C)C)nc2ccccc2c1=O | inactive: -6.21% |
| O=C(OCCN1CCOCC1)C1(c2ccccc2)CCCCC1 | inactive: -12.7% |
| O=C(c1cccn1-c1nnc(N2CCCCC2)s1)N1CCN(c2ccccc2)CC1 | inactive: -15.9% |
| Clc1cccc(CSc2ccc(-c3cccs3)nn2)c1 | inactive: -21.5% |
| COC(=O)CN1C(C(=O)c2ccccc2)=C(OC(=O)c2ccc(C)cc2)c2ccccc2S1(=O)=O | inactive: 0.589% |
| CCS(=O)(=O)c1ccccc1C(=O)N1CCN(c2nc3ccccc3s2)CC1 | inactive: 15.1% |
| N#Cc1ccc(CSc2nnc(-c3ccc(Br)cc3)o2)cc1 | inactive: -10.9% |
| CCn1c(=O)c2sccc2n2c(CCC(=O)NCc3ccc(Cl)cc3)nnc12 | inactive: -8.03% |
| Cc1oc(-c2cccc(Cl)c2)nc1CSCC(=O)NCc1ccccc1Cl | inactive: 5.69% |
